According to the supplement of paper PMC3334620:
Whole data set: some 33,000 sequences, median “E-score (-0.5 to 0.5)” near -0.043, cut for the highest 2% near 0.37. The list shows a part of the results.

target: T1, Upc2 (UniProt Q12151); assay: PBM E-score (8-mer binding enrichment) (E-score (-0.5 to 0.5)); higher = stronger / more preferred TF binding; most listed sequences are background and not binding sites; conditions: protein concentration: 200 nM; construct: GST-full length
T1 sequence: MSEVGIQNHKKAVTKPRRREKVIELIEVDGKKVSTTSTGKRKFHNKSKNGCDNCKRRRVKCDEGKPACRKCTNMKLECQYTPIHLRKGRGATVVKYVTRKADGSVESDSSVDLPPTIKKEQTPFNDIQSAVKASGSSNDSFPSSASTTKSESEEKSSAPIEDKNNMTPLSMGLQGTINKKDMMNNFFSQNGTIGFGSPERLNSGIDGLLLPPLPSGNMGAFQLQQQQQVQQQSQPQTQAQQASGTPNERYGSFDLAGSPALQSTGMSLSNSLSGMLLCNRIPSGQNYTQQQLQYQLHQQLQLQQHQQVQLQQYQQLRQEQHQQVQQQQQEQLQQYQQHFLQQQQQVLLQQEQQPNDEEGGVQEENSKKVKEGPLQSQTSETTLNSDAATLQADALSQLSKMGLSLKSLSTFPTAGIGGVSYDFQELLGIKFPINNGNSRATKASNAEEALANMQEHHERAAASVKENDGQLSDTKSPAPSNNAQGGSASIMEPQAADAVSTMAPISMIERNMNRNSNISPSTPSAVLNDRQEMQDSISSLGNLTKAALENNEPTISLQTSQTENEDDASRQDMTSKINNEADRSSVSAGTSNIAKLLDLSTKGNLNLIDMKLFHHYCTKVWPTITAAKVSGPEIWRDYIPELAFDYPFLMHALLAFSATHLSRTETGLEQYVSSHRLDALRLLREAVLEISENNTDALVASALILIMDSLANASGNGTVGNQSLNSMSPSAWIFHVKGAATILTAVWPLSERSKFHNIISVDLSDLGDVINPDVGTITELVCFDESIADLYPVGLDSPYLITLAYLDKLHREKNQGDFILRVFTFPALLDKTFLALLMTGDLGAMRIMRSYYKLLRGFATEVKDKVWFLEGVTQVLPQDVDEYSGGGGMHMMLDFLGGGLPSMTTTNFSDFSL
Experimental: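 Universal 'all 10-mer' protein binding microarrays (Agilent AMADID 015681) probed with GST-tagged S. cerevisiae TFs (full-length or DBD) made by in vitro transcription/translation (PURExpress), about 100-200 nM. Bound TF was detected with fluorescent anti-GST. Each ungapped 8-mer (which stands for itself and its reverse complement) is scored by the PBM enrichment score (E-score), a modified Wilcoxon-Mann-Whitney statistic from -0.5 to +0.5, computed with the Universal PBM Analysis Suite. Scale: above 0.35 generally sequence-specific binding.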

Sequence	PBM E-score
CGGCTTTA	0.0235
GCCCCGCA	-0.172
ACTTAGCT	-0.201
ATCTGTAA	-0.0759
AACTAACG	0.16
ACCTGTCT	-0.167
CACGTTCC	-0.00138
ACCGGTTC	-0.171
CATCTAGC	-0.177
ATGAAGCG	-0.171
CGCGACGA	0.148
CAAGCTAG	-0.141
CAAACACA	0.0073
AGGTCGCC	-0.293
AGAGTAGA	-0.0212
CGAAAATA	0.0911
GAGAGTTA	-0.0745
ATCTCTTC	-0.0581
ACTCGCGC	0.0983
AGATCAGC	-0.135
CCATTACC	-0.118
AAACTTAT	0.09
AGGCAAGA	-0.111
TGGGTCAA	-0.19
CTTTATTA	-0.07

Sequence	PBM E-score
CGACGACG	0.0684
CATCCGCA	-0.0238
GTTGATGA	-0.142
TATATAAA	0.169
ACCTCACC	-0.104
CATTCTCA	0.046
ACTCATGA	-0.0777
CACGGCCG	-0.0589
GATTTTGA	0.0303
AATTTATG	0.143
AGGACGAC	-0.2
CATACGCA	0.313
TATAATAA	0.105
AGACCTTA	-0.0891
AGATTACG	0.155
TTTCCAAA	-0.0113
CCAATGGG	-0.407
CAAGTCCG	0.0112
AAATATGT	0.116
AAAATACT	-0.132
AGGTCTAA	-0.0418
ACATGCCC	-0.0565
CCCGTAGA	-0.00639
ACCACGGT	-0.298
ACAATCGC	0.177

Sequence	PBM E-score
GTCAGCGA	-0.157
AATCAGGG	-0.35
ACGGGACG	0.0961
GCACCCCA	-0.0725
ATGAATTG	-0.0517
ATATTCAG	-0.0198
CCCACCAG	0.0436
ATGAGTCA	-0.165
GTGTTGGA	-0.112
CACCTTAA	-0.0239
CGGGTCAA	-0.0579
CATCGTAC	0.454
GTCGACAC	0.224
TACGTAAA	0.35
AATTATGG	-0.136
TGGTCAAA	-0.00066
CCAGCCCC	-0.129
TGTGAACA	0.0443
AACTAAGG	0.0134
GGCTTTGA	-0.0097
CGACCCTC	0.0606
AAGGCGTG	0.0225
GACGCCCA	-0.0905
AGGCGAAC	0.037
GAGAAGCA	-0.14

Sequence	PBM E-score
CTAATAAA	0.0178
AGGCCAAT	0.0145
CCGTTAGG	-0.0576
AGCTAACA	-0.196
CAATAGAC	-0.215
ATCCCTAC	0.0336
GAGAGGGA	-0.272
ACATCCCA	-0.15
AAAGTTGC	-0.109
TACCGTCA	0.0559
TAGCTCAA	-0.194
AGGGCCCC	-0.0589
TGAGCGCA	-0.0898
CGCCCAGA	-0.132
ACCGTTTG	0.333
AGGGGTCC	-0.168
CCTGGCGA	-0.211
CAACAGGC	0.0751
AATCCAGT	-0.0287
CCTTAGGA	-0.221
TATTTCAA	-0.0159
AGGTCTTG	-0.244
AAGGGGGA	-0.135
ATTGTATA	0.0678
TGGCAACA	-0.11

Sequence	PBM E-score
CGGAGGAA	-0.179
TACGCGAA	0.33
CATGATGA	-0.0886
AAGGCGGT	0.0927
AGGCTAGG	-0.241
TTGCACAA	-0.00073
CGATCATC	0.0255
AGCATGTG	-0.0181
GGAACGTA	0.282
CGCGGAAG	-0.146
GCATTGCC	0.107
AATAGTTC	-0.0274
ACCGGTGC	-0.157
AATAACTC	-0.0669
CCGCTAAA	0.0868
CCCAGCCC	-0.217
AAGTATCG	-0.0548
GGATCCAA	-0.15
AGCTCTTG	-0.231
ATTAAAGG	-0.0441
AGTGCTGA	0.0336
ACGGCGGC	0.0871
CCCTTACC	-0.173
ACGAACCG	0.378
GAAACTTC	0.183

Sequence	PBM E-score
ATCCGTCC	-0.237
CGGGTACC	-0.158
ATTTCCAC	-0.204
GCCAGGCA	-0.279
CACCCTTA	-0.0397
ACGTCAAA	0.0428
GTATGATA	0.301
AGCCTAAT	0.112
AATATTAA	0.188
ATATATGA	0.0231
AACAACGC	0.0862
CGGTCCAG	0.0132
ACGCTAGG	-0.165
CTTTCGTA	0.416
GACGTACC	0.167
AGGAGGAA	0.0635
ACCCAAGT	-0.00236
AACTAGTC	-0.0861
ATACTGGG	-0.00635
AACGATCG	0.383
AAGCTTGG	0.127
ACGCCATG	0.0211
CGCTGGTA	-0.136
AACCACCT	-0.0524
CACGTCAA	-0.0754

Sequence	PBM E-score
ATATCCAT	0.12
AATTGGTC	-0.081
AGATCTAT	-0.011
AGCGTGAC	-0.0784
CAGGAACC	-0.161
CTCTTCCC	-0.25
CAGAGCGC	-0.185
AGATCCAT	-0.092
AAAATCGT	0.254
TAAACTTA	0.0706
CTGTTTCA	-0.114
ATGGGAGA	-0.251
GGAGAACC	-0.266
AGGCGCGG	-0.0131
GTGCCAAC	-0.0672
AGGGTCCC	-0.229
ATCCCTGA	-0.22
GCGAAGCC	0.0169
CCGAAAAG	0.0282
GTTCGACA	-0.0091
AGCTTTGG	0.0166
AAACAGAT	0.0332
